Laboratory results: PubChem BioAssay AID1508623 (National Center for Advancing Translational Sciences (NCATS), 2021)
The campaign covered roughly 48,000 compounds. About 450 (0.94%) were called active. Roughly 19% stayed inconclusive and do not appear here. Calls follow the shape of the dose curve; as a rule, active = well fitted inhibition curve with a large enough effect; inconclusive = small, poorly fitted or top-dose-only effect; inactive = no such curve, though single readings can be large or run the other way. The list shows a part of the results.

Assay: Primary qHTS for Identification of Small Molecule Inhibitors of Huntingtin Promoter Activity; also: nearly all actives have a fitted effect of over 50% in size
Details: HEK293 HTT promoter firefly luciferase reporter (activity 0% = vehicle and -100% = no light), 24 h; series mostly up to 57.5 µM; activity change, negative = inhibition: at the top concentration
Outline: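 HEK293 luciferase promoter-reporter cells (2,500/well) plated 24 h, then compounds added at up to 57.5 uM final for 24 h at 37 °C. Firefly luminescence by Dual-Glo, normalized to vehicle (0%) and zero RLU (-100%).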

Structure (SMILES) | activity change, negative = inhibition
COc1cc(-c2noc(-c3ccc(NCc4ccco4)c([N+](=O)[O-])c3)n2)cc(OC)c1OC | inactive: -0.0884%
CCOC(=O)c1nc(Nc2ccccc2OC)c2ccccc2n1 | inactive: -22%
Cc1cn2c(=O)cc(COc3ccc(NC(=O)c4ccccc4C)cc3)nc2s1 | inactive: -3.83%
CCCCN(CC)C(=O)c1cc2c(=O)n3ccccc3nc2n1C | inactive: 30.2%
COc1cc2[nH]c(=O)n(Cc3ccc(C(=O)N4CCN(c5cc(Cl)ccc5C)CC4)cc3)c(=O)c2cc1OC | inactive: -7.98%
O=C(NCC(c1ccc2c(c1)OCO2)N1CCOCC1)C(=O)Nc1ccc(F)cc1F (centres undefined) | inactive: 10.9%
O=C(Cn1cnc2c(oc3ccccc32)c1=O)Nc1ccc(OC(F)(F)F)cc1 | inactive: 0.986%
CC(=O)Nc1ccc(CC(=O)O)cc1 | inactive: -13.4%
O=C(Nc1cccc(Cl)c1)N1CCC(CN2CCOCC2)CC1 | inactive: -13.6%
O=C(CN1C(=O)CC(c2ccco2)Sc2ccccc21)Nc1ccc(C(F)(F)F)cc1 (centres undefined) | inactive: -12.7%
Cc1cccc(CCNC(=O)c2cnc3c(C)cccn3c2=O)c1 | inactive: 37.8%
CC(C)(C)c1ccc(S(=O)(=O)c2cn(CC(=O)Nc3ccccc3)c3ccccc3c2=O)cc1 | inactive: -28.3%
COc1ccccc1CNC(=O)Cc1csc2nc(-c3ccccc3)cn12 | inactive: 8.41%
Cc1ccc(CNC(=O)c2ccc3c(c2)N(Cc2ccccc2)C(=O)c2ccccc2S3(=O)=O)cc1 | inactive: -13.8%
COC(=O)C1CCN(CC(=O)Nc2cc(C)c3c(=O)oc4ccccc4c3n2)CC1 | inactive: -0.626%
O=C(CCC1N=C2c3ccccc3N=C(SCc3ccccc3F)N2C1=O)NCCc1ccccc1 (centres undefined) | inactive: -13.3%
Cc1cc(C)c(NC(=O)Cn2ccn(-c3cccc(Cl)c3)c(=O)c2=O)c(C)c1 | inactive: -19.2%
CCOC(=O)c1ccc(NC(=O)c2c(C)nn(-c3ccc(F)cc3)c2-n2cccc2)cc1 | inactive: -14.3%
Cc1ccc2c(c1)N(C(=O)C1CCN(S(=O)(=O)c3c(C)noc3/C=C/c3ccccc3F)CC1)CCO2 | inactive: -34.9%
COc1ccc(CNC(=O)CCNS(=O)(=O)c2cccc3nsnc23)cc1 | inactive: -4.99%
COc1ccc(OC)c(CNC(=O)Cn2nc(C)c3nn(-c4ccc(Cl)cc4)c(C)c3c2=O)c1 | inactive: -23.2%
COc1ccc2oc(=O)c(-c3cn4c(n3)sc3cc(OC)ccc34)cc2c1 | inactive: -4.78%
CCc1ccccc1NC(=O)Nc1nnc(N(C)Cc2ccccc2)s1 | inactive: -31.2%
Clc1ccc(N2CCN(c3ncnc4c3cnn4-c3ccccc3)CC2)cc1Cl | inactive: 7.8%

Structure (SMILES) | activity change, negative = inhibition
COc1ccc(NC(=O)c2cc3nc(-c4ccc(Cl)c(Cl)c4)cc(C(F)(F)F)n3n2)c(OC)c1 | inactive: 3.29%
Cc1sc2ncn(CC(=O)Nc3ccc(F)cc3F)c(=O)c2c1S(=O)(=O)N1CCC(C)CC1 | inactive: -27.8%
CCOc1ccccc1NC(=O)N1CCC(n2c(C)nc3cccnc32)CC1 | inactive: 0%
Cc1c(-c2nnc(SCC(=O)Nc3ccccc3F)o2)nnn1-c1ccc(F)cc1 | inactive: 66.5%
COc1ccc(C(=O)NC2CC(=O)N(c3ccc4c(c3)OCCO4)C2)cc1 (centres undefined) | inactive: -7.83%
COc1cccc(N2CCN(S(=O)(=O)c3cn(C)c(C)n3)CC2)c1 | inactive: -3.16%
C[C@H]1[C@H](NC(=O)/C(=N/OC(C)(C)C(=O)O)c2csc(N)n2)C(=O)N1S(=O)(=O)O (stereo in doubt) | inactive: 14.5%
CC(=O)N1CCc2cc(S(=O)(=O)NC(CC(C)C)C(=O)Nc3ccc(C(C)C)cc3)ccc21 (centres undefined) | inactive: -19.4%
CC(=O)N1c2ccc(S(=O)(=O)N3CCCCCC3)cc2CC1C(=O)NC(C)C (centres undefined) | inactive: -0.509%
CCOC(=O)N1CCc2c(sc3c2c(=O)n(Cc2ccccc2)c(=O)n3Cc2cc(C)ccc2C)C1 | inactive: -3.92%
CC(C)CC(=O)Nc1nc2c(s1)CC(C(C)(C)C)CC2 (centres undefined) | inactive: 35%
CCc1nn(CCCC(=O)N2CCN(c3cc(Cl)ccc3C)CC2)c(=O)c2cc3occc3n12 | inactive: -20.2%
COc1ccc(CC(=O)NC2CC(=O)N(c3cccc(F)c3)C2)cc1OC (centres undefined) | inactive: -5.7%
CCOC(=O)c1c(C)n(S(=O)(=O)c2ccc(C)cc2C)c2ccc(NS(=O)(=O)c3ccc(C)cc3C)cc12 | inactive: -32%
COc1ccccc1Nc1sc(C(=O)c2ccc3c(c2)OCO3)c(N)c1S(=O)(=O)c1ccccc1 | inactive: -22.2%
Cc1ccc(C2=Nc3ccccc3N(CC(=O)Nc3ccccc3F)C(=O)C2)cc1C | inactive: 23.2%
O=C(Nc1cccc(Cl)c1)c1ccc2nc(CCc3ccccc3)oc2c1 | inactive: -3.96%
CCCn1c2ccccc2c2cnn(CC(=O)NCc3ccccc3Cl)c(=O)c21 | inactive: -15.5%
CCN(CC)CCCNC(=O)Cc1ccc(NC(=O)N2CCCCc3ccccc32)cc1 | inactive: -8.39%
O=c1oc2ccccc2cc1-c1nnc(Nc2ccc(Cl)cc2Cl)s1 | inactive: 13.9%
Cc1ccc(-c2nc3cc(Cl)ccc3o2)cc1NC(=O)c1cc([N+](=O)[O-])ccc1N1CCOCC1 | inactive: -4.93%
CC(=O)NC1CC(=O)N(c2ccc3c(c2)OCCO3)C1 (centres undefined) | inactive: 7.56%
Cc1nc(-c2ccccc2)sc1-c1ccc(SCC(=O)Nc2cccc(C(F)(F)F)c2)nn1 | inactive: 5.85%
CCC(=O)N1CCc2cc(Br)cc(S(=O)(=O)N3CCC(C(=O)Nc4ccccc4CC)CC3)c21 | inactive: 14.3%

Structure (SMILES) | activity change, negative = inhibition
COc1ccc2nc(NC(=O)Nc3ccccc3)sc2c1 | inactive: 20.3%
COc1cc(OC)c(NC(=O)C2CCN(C(=O)c3sc4nc[nH]c(=O)c4c3C)CC2)cc1Cl | inactive: -13.5%
COCCCNC(=O)c1cnc2c(-c3ccc(F)cc3)c(C)nn2c1C | inactive: -11.3%
CCOC(=O)C1CCN(C(c2cccc(F)c2)c2c(O)cc(C)n(Cc3ccco3)c2=O)CC1 (centres undefined) | inactive: -7.33%
CCN1CC(CCN2CCOCC2)C(c2ccccc2)(c2ccccc2)C1=O (centres undefined) | inactive: 2.71%
CCOc1cccc(C(=O)N2CCC(c3nc4ccccc4s3)CC2)c1 | inactive: -4.86% [at 11.5 µM]
COc1ccc(-c2noc(N(c3cccc(Cl)c3)c3nc(-c4ccc(OC)c(OC)c4)no3)n2)cc1OC | inactive: -12.8%
O=C(c1ccc(Br)cc1)N1CCN(CCc2ccncc2)CC1 | inactive: -16.6%
CCOc1ccc(-c2nc(SCC(=O)c3ccccc3)n[nH]2)cc1 | inactive: -2.42%
CC(=O)c1ccc(NC(=O)CSc2ccc(-c3cccs3)nn2)cc1 | inactive: 14.2%
CN(C)c1ccc(CNC(=O)c2cnc3sc(N4CCOCC4)nn3c2=O)cc1 | inactive: 3.53%
Brc1cccc(-c2nnc(CN3CCN(c4ccccn4)CC3)o2)c1 | inactive: -11.4%
Cc1ccc(S(=O)(=O)Cc2ccc(C(=O)NCCc3ccc(Cl)cc3)o2)cc1 | inactive: -24%
Cc1cc(C)nc(NC(=NCCc2c[nH]c3ccc(Cl)cc23)NC(=O)c2ccccc2C)n1 | inactive: -24.8%
COC(=O)C1=C(C)NC(=O)C1(NC(=O)c1cc(OC)c(OC)c(OC)c1)C(F)(F)F (centres undefined) | inactive: -3.26%
C=Cc1ccc(Cn2nc(-c3ccc(C)cc3)ccc2=O)cc1 | inactive: -21%
O=C(NC1CCCCC1)c1ccc(CSc2nc3cccnc3n2Cc2ccc(F)cc2)cc1 | inactive: 2.2%
O=C(c1cc(O)c(O)c(O)c1)c1ccc(O)c(O)c1O | inactive: -0.375%
COc1ccc(OC)c(NC(=O)C2CCN(S(=O)(=O)c3ccc4c(c3)CCCC(=O)N4)CC2)c1 | inactive: -12.3%
CCOC(=O)c1ccc(NC(=O)CCC(=O)N2Cc3ccccc3Oc3ncccc32)cc1 | inactive: -29.7%
O=C1CC(c2nnc(Cc3ccc(F)cc3Cl)o2)CN1c1ccccc1 (centres undefined) | inactive: -19.1%
O=C(CN1C(=O)COc2ccc(S(=O)(=O)N3CCCC3)cc21)N1CCN(c2ccc(F)cc2)CC1 | inactive: -14.4%
O=C1c2[nH]nc(-c3ccccc3O)c2C(c2ccccc2F)N1Cc1cccnc1 (centres undefined) | inactive: -27.7%
COCCNc1ccc(-c2nc(-c3ccco3)no2)cc1[N+](=O)[O-] | inactive: 39.7%

Structure (SMILES) | activity change, negative = inhibition
COc1ccc(S(=O)(=O)NCC(c2ccco2)N2CCN(c3ccccc3)CC2)cc1OC (centres undefined) | inactive: -29.6%
Cc1[nH]c(=O)[nH]c(=O)c1S(=O)(=O)N1CCN(c2ccccc2Cl)CC1 | inactive: -14.2%
O=C(O)CCn1c(=O)c2cccn2c2cccnc21 | inactive: -17.9%
N#Cc1ccccc1Cn1c(=O)n(-c2cccc(C(F)(F)F)c2)c(=O)c2sccc21 | inactive: -17%
COc1ccccc1NC(=O)c1sc2nc(C)c(C(=O)Nc3ccc(C)cc3C)c(-c3cccs3)c2c1N | inactive: -19.8%
CCOc1cc2[nH]c(=O)n(CCCCC(=O)N3CCN(c4cccc(Cl)c4)CC3)c(=O)c2cc1OCC | inactive: -26.7%
Cc1cccc2sc(N(Cc3cccnc3)C(=O)c3cccs3)nc12 | inactive: -12.7%
CCc1ccc(CN2CCc3nc(Nc4ccccc4)ncc3C2)cc1 | inactive: -24.7%
CCOC(=O)c1c(C)[nH]c(CCC(=O)NCc2ccc(F)cc2)c1C | inactive: -7.46%
CC(=O)Nc1ccc(NC(=O)c2cc3sccc3n2Cc2ccc(F)cc2)cc1 | inactive: -13%
CC(C)(C)C1CCc2c(sc3nc(-c4cc5cc(Br)ccc5oc4=O)[nH]c(=O)c23)C1 (centres undefined) | inactive: -10.6%
CCOC(=O)c1ccc(OC(=O)CCCCCN=C(N)N)cc1 | inactive
Cc1cccc(NC(=O)c2oc3ccccc3c2NC(=O)c2cc(=O)c3cc(Cl)ccc3o2)c1 | inactive: 17.4%
COc1ccccc1C(=O)Nc1c(C(=O)N(C)c2ccccc2)sc2nc(C)cc(C)c12 | inactive: -6.25%
O=C(CCS(=O)(=O)c1cc(Br)cc2c1N(C(=O)C1CC1)CC2)Nc1ccc(C(F)(F)F)cc1 | inactive: -1.58%
COc1cccc(CNC(=O)CN2C(=O)COc3ccc(S(=O)(=O)Nc4ccccc4)cc32)c1 | inactive: -27.3%
Cn1c(=O)c2sccc2n2c(CCC(=O)NCc3ccccc3Cl)nnc12 | inactive: -18.6%
COc1ccc(CNC(=O)C2CCN(C(=O)N3CC(C)Oc4ccc(C)cc43)CC2)cc1 (centres undefined) | inactive: -29.7%
CN(Cc1ccccc1)C(=O)C1CCN(S(=O)(=O)c2ccc3nc4c(c(C(=O)O)c3c2)CCCC4)CC1 | inactive: -3.21%
COc1ccc(-c2nc(Cn3c(SCc4ccccc4F)nc4ccncc43)c(C)o2)cc1OC | inactive: -2.47%
CCOc1ccc(C(=O)Nc2cc(-c3cn4cccnc4n3)ccc2C)cc1OCC | inactive: -3.43%
COc1ccc(CCNC(=O)c2c(C)oc3ncn(CC(C)C)c(=O)c23)cc1OC | inactive: 0%
